Data: PubChem BioAssay AID2676 (National Center for Advancing Translational Sciences (NCATS), 2010)
In all, about 370,000 compounds went through this assay and about 1,100 (0.3%) were called active. This list was built around the results that the source calls inconclusive (neither active nor inactive); the mix of calls is not that of the screen. The call rests on the fitted dose curve; in most records, active means well fitted activation curve with a large enough effect; inconclusive means small, poorly fitted or top-dose-only effect; inactive means flat fitted curve, though single readings scatter. A potency beside an inconclusive call is a rough fit, not a confirmed value.

Each molecule was assayed against Relaxin receptor 1 (Homo sapiens) (UniProt Q9HBX9) (assay: qHTS Assay for Agonists of the Relaxin Receptor RXFP1). Conditions: HEK293T-RXFP1 cAMP TR-FRET, 30 min; series mostly up to 57.5 µM.
UniProt Q9HBX9, sequence (Q9HBX9 whole entry, looked up): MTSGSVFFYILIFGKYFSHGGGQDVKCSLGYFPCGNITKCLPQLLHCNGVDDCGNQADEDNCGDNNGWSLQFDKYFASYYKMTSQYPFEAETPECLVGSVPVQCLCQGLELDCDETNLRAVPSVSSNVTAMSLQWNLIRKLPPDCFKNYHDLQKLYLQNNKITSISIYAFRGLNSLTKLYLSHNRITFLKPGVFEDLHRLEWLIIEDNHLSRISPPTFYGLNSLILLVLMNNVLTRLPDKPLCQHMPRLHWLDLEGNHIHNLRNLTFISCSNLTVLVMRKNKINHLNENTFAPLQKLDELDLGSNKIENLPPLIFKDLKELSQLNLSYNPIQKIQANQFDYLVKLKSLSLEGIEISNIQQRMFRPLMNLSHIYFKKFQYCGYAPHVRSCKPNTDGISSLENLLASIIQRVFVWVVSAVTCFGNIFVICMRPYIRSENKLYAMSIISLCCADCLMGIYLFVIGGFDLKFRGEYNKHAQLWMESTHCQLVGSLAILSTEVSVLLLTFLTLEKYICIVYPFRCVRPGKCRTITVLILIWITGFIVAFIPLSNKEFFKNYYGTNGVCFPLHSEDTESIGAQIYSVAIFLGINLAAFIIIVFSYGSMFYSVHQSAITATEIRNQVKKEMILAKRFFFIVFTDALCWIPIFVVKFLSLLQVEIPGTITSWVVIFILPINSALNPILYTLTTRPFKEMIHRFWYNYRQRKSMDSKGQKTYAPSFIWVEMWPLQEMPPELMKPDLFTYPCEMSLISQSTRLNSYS
Excerpt: NIH Chemical Genomics Center [NCGC] NIH Molecular Libraries Probe Production Centers Network [MLPCN] MLPCN Grant: R03 MH085705-01A1 Assay Submitter (PI): Alexander Agoulnik NCGC Assay Overview: The relaxin hormone is involved in the variety of biological functions in normal tissues and diseases. The role of relaxin is well-established in female reproduction and parturition, mammary gland and endometrial development, maintenance of myometrial quiescence during pregnancy. Relaxin signaling through its G protein-coupled receptor (GPCR) RXFP1 results in ECM remodeling through regulation of collagen deposition, cell invasiveness, proliferation and overall tissue homeostasis. […] Recombinant human relaxin (rhRlx) is currently being tested in clinical trials as a protective agent in congestive heart failure, in treating severe preeclampsia, and as an anti-fibrotic agent in systemic sclerosis. Upon relaxin binding RXFP1 activation leads to the activation of adenylate cyclase (AC) via Gs. cAMP will activate PKA, which phosphorylates many signaling proteins. Thus, detection of cAMP increase is an easy and reliable indication of relaxin receptor activation. To screen for agonists of the relaxin receptor, a HEK293T cell line stably transfected with RXFP1 was used. RXFP1 activation was assayed by changes in cAMP levels as detected with a time-resolved fluorescence energy transfer (TR-FRET) cAMP detection kit.
NCGC Assay Protocol Summary: This is a cell-based assay for cAMP second messenger response to screen for agonists of the RXFP1 receptor. The assay was conducted in the presence of a PDE4 inhibitor (Ro 20174). The cells were lysed and the cAMP levels were measured with a TR-FRET cAMP kit. Presence of cAMP in the cell lysate disrupts binding between the cryptate-labeled anti-cAMP and d2-labeled cAMP pair, leading to a decrease in the TR-FRET signal. Data were normalized to the controls for basal activity (buffer only) and 100% activity (29 nM porcine relaxin). The EC50 values were determined from concentration-response data modeled with the standard Hill equation 1536-well assay protocol for the HEK293 RXFP1 cAMP assay: (1) Add 3 ul HEK293 RXFP1 cell culture. 2000 cells/well in DMEM/F12, 10% FBS, 1x Pen/Strep (dispensed offline with MultiDrop Combi). (2) Incubate 16-24 hr at 37C, 5% CO2. (3) Add 1 ul 400uM Ro20174 in DPBS, 0.05% BSA, 0.005% Tween 20. (3) Add 23 nl compounds in DMSO solution. Final concentration was 0.5 - 58 uM. (4) Incubate 30 min at 37C, 5% CO2. (5) Add 1 ul cAMP-d2 in lysis buffer (HTRF cAMP HiRange kit, CisBio). (6) Add 1 ul anti-cAMP antibody-cryptate in lysis buffer (HTRF cAMP HiRange kit, CisBio). (7) Incubate 30 min at room temperature. (6) Detect the assay plate in a ViewLux plate reader (PerkinElmer) with Ex=320 nm, Em1=615 nm and Em2=665 nm. Keywords: relaxin, RXFP1, RXFP2, G-protein coupled receptor, cAMP, agonist, high throughput screening, MLSMR, MLSCN, NIH Roadmap, qHTS and NCGC
Further: nearly all actives have a fitted effect of over 60% in size.
Potency means the concentration at half of the fitted maximal effect; tags describe the fitted curve by direction and shape.

| SMILES | Potency |
| --- | --- |
| S=C(NC1CCCC1)N1CCN(c2ccc(Cl)cc2)CC1 | inactive |
| O=C(OCc1cc(=O)n2c(n1)sc1ccccc12)c1ccc2c(=O)n3c(nc2c1)CCC3 | inconclusive: 35.5 µM [activator, single point] |
| O=C(O)c1cc(-c2cccs2)nc2ccc(F)cc12 | inconclusive: 20 µM [activator, partial curve] |
| CCOc1ccc2nc(NC(=O)CSc3nc(-c4ccccc4)c(C#N)c(=O)[nH]3)sc2c1 | inconclusive: 20 µM [activator, partial curve] |
| CCOC(=O)N1CCc2c(sc3ncn(C)c(=O)c23)C1 | inconclusive: 17.8 µM [activator, partial curve] |
| CCOc1ccc(C(=O)NCCc2sc(-c3ccc(OC)c(OC)c3)nc2C)cc1 | inactive |
| CCOC(=O)c1cccc(NC(=O)c2cc3c(=O)n(C)c4ccccc4c3n2C)c1 | inconclusive: 39.8 µM [activator, single point] |
| Cc1ccc(C)c(-n2c3nc(=O)[nH]c(=O)c-3cc3c(C)nn(-c4ccccc4)c32)c1 | inactive |
| COc1ccc(NC(=O)CCn2c(=O)c3cccn3c3cccnc32)cc1Cl | inconclusive: 39.8 µM [activator, single point] |
| Cc1cc(C)nc(NS(=O)(=O)c2ccc(N3C(=O)c4ccccc4C3=O)cc2)n1 | inconclusive: 20 µM [activator, partial curve] |
| CCCn1c(SCC(=O)Nc2ccc(NC(C)=O)cc2)nc2c1c(=O)n(C)c(=O)n2C | inconclusive: 25.1 µM [activator, partial curve] |
| COc1ccc(CC(=O)Nc2ccc(-c3nc4cc(C)ccc4o3)c(O)c2)cc1OC | inconclusive: 35.5 µM [activator, single point] |
| NC(=O)c1ccc(NC(=O)c2ccc(COc3ccccc3Br)cc2)cc1 | inconclusive: 22.4 µM [activator, partial curve] |
| Clc1ccc2c(c1)-c1c(cnc3cc(-c4ccccc4)nn13)CO2 | inconclusive: 39.8 µM [activator, single point] |
| Cc1ccc2[nH]c(C)cc(=S)c2c1 | active: 20 µM |
| Cc1ccc(CNC(=O)c2nc(SCc3ccc(F)cc3)ncc2Cl)cc1 | inconclusive: 39.8 µM [activator, single point] |
| CCCS(=O)(=O)c1nc(S(=O)(=O)c2ccc(C)cc2)c(N2CCN(CCO)CC2)s1 | inconclusive: 15.8 µM [activator, partial curve] |
| O=C1CC(c2ccc(F)cc2)Cc2nc(NCc3ccco3)ncc21 (stereo unspecified) | inconclusive: 31.6 µM [activator, single point] |
| Cc1ccc(C(=O)C2=C(O)C(=O)N(c3ncccn3)C2c2ccc(Br)cc2)o1 (stereo unspecified) | inconclusive: 4.47 µM [activator, partial curve] |
| Cc1nnc(NC(=O)C(C)Sc2nnc(-c3ccco3)n2C)s1 (stereo unspecified) | inconclusive: 35.5 µM [activator, single point] |
| O=C(NCCCN1CCCC1=O)c1sc2ccccc2c1Cl | inconclusive: 25.1 µM [activator, partial curve] |
| CCOC(=O)N1CCN(S(=O)(=O)c2c(C)nc3scc(C)n3c2=O)CC1 | active: 14.1 µM |

| SMILES | Potency |
| --- | --- |
| Cc1csc2nc(COc3ccc(NC(=O)COc4ccccc4F)cc3)cc(=O)n12 | inconclusive: 35.5 µM [activator, single point] |
| CC(C)OCCCn1c(SCC(=O)Nc2ccc(F)cc2)nc2c(sc3ccccc32)c1=O | inconclusive: 35.5 µM [activator, single point] |
| O=C(CCCCCn1c(=S)[nH]c2cc3c(cc2c1=O)OCO3)N1CCN(c2ccc(F)cc2)CC1 | inconclusive: 39.8 µM [activator, single point] |
| CCCSc1nc2c(c(=O)n(C)c(=O)n2C)n1C | inconclusive: 28.2 µM [activator, partial curve] |
| Cc1sc2nc(SCC(=O)NCc3ccco3)n(Cc3ccccc3)c(=O)c2c1C | inconclusive: 31.6 µM [activator, single point] |
| CCc1c(C(=O)O)[nH]c2ccc(Br)cc12 | inconclusive: 39.8 µM [activator, single point] |
| COc1ccc(-c2csc(NC(=O)c3ccc(N4C(=O)CCC4=O)cc3)n2)cc1OC | inconclusive: 39.8 µM [activator, single point] |
| CSc1nncn1/N=C/c1ccc([N+](=O)[O-])cc1 | inconclusive: 28.2 µM [activator, partial curve] |
| O=C(Nc1ccc2oc(-c3cccc(F)c3)nc2c1)c1ccccc1F | inconclusive: 31.6 µM [activator, single point] |
| CCOc1ccc2nc(SCC(=O)Nc3ccc(S(=O)(=O)N4CCCC4)cc3)c(C)cc2c1 | inconclusive: 39.8 µM [activator, single point] |
| CN(C)c1ccc(-c2nnc(-c3cccs3)o2)cc1 | inconclusive: 15.8 µM [activator, partial curve] |
| CCOCCn1c(=NC(=O)c2ccc3c(c2)OCCO3)sc2cc(OCC)ccc21 | inconclusive: 31.6 µM [activator, single point] |
| COc1ccc(C)cc1NC(=O)c1sc2ncnc(N3CCN(c4ccccn4)CC3)c2c1C | inconclusive: 35.5 µM [activator, single point] |
| O=C(O)CCCC(=O)Nc1ccccc1SCCS(=O)(=O)c1ccc(Cl)cc1 | inactive |
| COc1ccc(C(=O)OCC(=O)Nc2sccc2C(N)=O)cc1OC | inconclusive: 39.8 µM [activator, single point] |
| CCc1nnc(NC(=O)CSc2nc(C)nc3c2c(=O)n(C)c(=O)n3C)s1 | inconclusive: 2.82 µM [activator, partial curve] |
| Cc1cc(C)c(S(=O)(=O)N2CCOC2CNC(=O)C(=O)NCc2ccccn2)c(C)c1 (stereo unspecified) | inactive |
| CCC1(C)Cc2c(sc3nnn(CC(=O)Nc4ccc(C)cc4)c(=O)c23)CO1 (stereo unspecified) | inactive |
| CCOCCCn1c(SCC(=O)Nc2ccc(F)cc2)nc2c(sc3ccccc32)c1=O | inconclusive: 28.2 µM [activator, partial curve] |
| CC1CC(C)CN(Cc2nc(N)nc(Nc3ccc4ccccc4c3)n2)C1 (stereo unspecified) | inactive |
| Cc1cc(CNC(=O)COc2ccc([N+](=O)[O-])cc2)c2ccccc2n1 | inconclusive: 20 µM [activator, partial curve] |
| N#Cc1c(N)n(-c2ccc(C(=O)O)cc2)c2nc3ccccc3nc12 | inconclusive: 28.2 µM [activator, partial curve] |

| SMILES | Potency |
| --- | --- |
| CC(C)(C)NS(=O)(=O)c1ccc2c(c1)oc(=O)c1cc(S(=O)(=O)NC(C)(C)C)ccc12 | inactive |
| CC1=C(c2ccc(C(C)C)cc2)S(=O)(=O)N=C1N1CCC(C(=O)NCc2ccco2)CC1 | inconclusive: 39.8 µM [activator, single point] |
| O=[N+]([O-])c1ccc(CN2CCOCCOCCN(Cc3ccc([N+](=O)[O-])cc3)CCOCC2)cc1 | inactive |
| Cc1csc2nc(COc3ccc(NC(=O)c4ccccc4F)cc3)cc(=O)n12 | inconclusive: 14.1 µM [activator, partial curve] |
| COc1ccc(-c2nc3ccccc3s2)cc1NC(=O)c1cc(OC)c(OC)c(OC)c1 | inconclusive: 35.5 µM [activator, single point] |
| COc1ccc(C(=O)N2CCN(C(=O)COc3ccccc3)CC2)cc1OC | inactive |
| O=C(CNC(=O)c1cccc(F)c1)OCc1cc(=O)n2cc(Br)ccc2n1 | inconclusive: 25.1 µM [activator, partial curve] |
| COc1cccc(NC(=O)CSc2ccc3nnc(-c4cccnc4)n3n2)c1 | inconclusive: 15.8 µM [activator, partial curve] |
| CCOC(=O)CSc1nc2cc3c(cc2cc1C#N)OCCO3 | inconclusive: 31.6 µM [activator, single point] |
| CCOC(=O)c1c(C)[nH]c(=S)c(C#N)c1-c1ccccc1 | inconclusive: 15.8 µM [activator, partial curve] |
| Cc1ccc(Cl)cc1-n1ncc2c(NC3CCCCC3)ncnc21 | inactive |
| CN(C)c1ccc(/C=C/c2ccc3ccccc3n2)cc1 | inconclusive: 28.2 µM [activator, partial curve] |
| O=C(CSc1nncn2c1cc1occc12)Nc1ccccc1C(F)(F)F | inconclusive: 25.1 µM [activator, partial curve] |
| CCOC(=O)C1CCN(C(=O)CN2C(=O)CSc3ccc(S(=O)(=O)N4CCOCC4)cc32)CC1 | inactive |
| CC1(C)Cc2nc3sc4c(SCC(=O)NCc5ccccc5)ncnc4c3cc2CO1 | inconclusive: 35.5 µM [activator, single point] |
| O=S1(=O)C=C(Sc2nc3ccccc3s2)c2ccccc21 | inactive |
| O=C(Nc1ccc2c(c1)C(=O)NC2=O)c1ccc(Cl)s1 | inconclusive: 39.8 µM [activator, single point] |
| C#CCn1c(=NC(=O)c2ccco2)sc2cccc(Cl)c21 | inconclusive: 39.8 µM [activator, single point] |
| COc1ccccc1CNC(=O)CCC1N=C2c3ccccc3N=C(SCC(N)=O)N2C1=O (stereo unspecified) | inactive |
| CN(C)c1ccc(-c2nc3cnccn3c2Nc2cccc(C(F)(F)F)c2)cc1 | inactive |
| COc1ccc(NC(=O)Cn2c(=O)n(Cc3ccco3)c(=O)c3cc(OC)c(OC)cc32)cc1 | inconclusive: 39.8 µM [activator, single point] |
| O=C(CSc1ccc2nnc(-c3cccnc3)n2n1)Nc1ccccc1 | active: 15.8 µM |
